Measurements as given in the supplement of paper PMC11417369.
This is one part of the list.

These sequences were tested on PF3D7_0420300 AP2 domain 1 (GST-tagged) (assay: gcPBM binding intensity (ln(normalized median fluorescence intensity)); higher = stronger DNA binding).
In short: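 GST-tagged P. falciparum DNA-binding domains produced in E. coli were incubated for 1 h on an Agilent 4 × 180k array of primer-extended double-stranded 36-bp intergenic genomic probes with negative controls. Binding intensity is the highest Masliner-normalised natural-log median intensity across replicate spots of either probe orientation, with bound protein detected by Alexa488 anti-GST antibody at 488 nm.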
With “AAAAAATATTGAAGTACACACATTATAAACTTTTTT [CACACA_site5029]” the “gcPBM binding intensity (ln)” value was 9.5.
With “AAAATTAAAAATTACTGTACGTATTAGAGAATAAAT [XGTACX_site2567]” the “gcPBM binding intensity (ln)” value was 9.31.
With “TATATTGTATAAAAATGTACATGCAATAAATTTAGT [XGTACX_site5621]” the “gcPBM binding intensity (ln)” value was 9.42.
“AAAATATTAATTAATACATGCATATATATATATATA [TGCATGCA_site585]” was tested, and the “gcPBM binding intensity (ln)” value was 9.28.
TTAATTATGGACAGGGTGCACATGAATAATAATACC was tested, and the “gcPBM binding intensity (ln)” value was 9.66.
For “TATATTATAATAAGACGTACAAGGATGTTAAAACTT [XGTACX_site5828]”, the “gcPBM binding intensity (ln)” value was 9.35.
In the case of “AAGGAGAAATAAATATTAAAAAATTTATATATATAT [CACACA_negctrl_site1801]”, the “gcPBM binding intensity (ln)” value is reported as 9.05.
With “TAATATTGCAAATATAAAAAAAAATAAACCATATAT [XGTACX_negctrl_site458]” the “gcPBM binding intensity (ln)” value was 9.39.
In the case of “TTCTTTTTTAACAACAAAAAAAAAAAAAAAAAAAAA [TGCATGCA_negctrl_site87]”, the “gcPBM binding intensity (ln)” value is reported as 8.37.
“TTTTTTGCTTTCAACACACATACAATCTATATAATC [CACACA_site4125]” was tested, and the “gcPBM binding intensity (ln)” value was 9.44.
With “TAAACCTGTAGAGATGCATGCATTGTTAACATGGTG [TGCATGCA_site515]” the “gcPBM binding intensity (ln)” value was 9.24.
“AAAAAATTGACTAATGCACACAATTACATATATATA [CACACA_site1689]” was tested, and the “gcPBM binding intensity (ln)” value was 9.41.
“CAATTTTTCTATCATTGTACTTTTATATAATAGTGT [XGTACX_site1810]” was tested, and the “gcPBM binding intensity (ln)” value was 9.41.
For “AATTGTTCTATGATTTGTACACACTTTTTTTTAAAA [XGTACX_site5984]”, the “gcPBM binding intensity (ln)” value was 9.42.
“ATTTTTTACGTATAGTACAAAGTTTTATGATACATA [CACACA_negctrl_site965]” was tested, and the “gcPBM binding intensity (ln)” value was 9.14.
In the case of “ATGAAATATATTATATGTACATATTTATTTTTTATA [XGTACX_site7319]”, the “gcPBM binding intensity (ln)” value is reported as 9.16.
In the case of “CATTATAAAAAATAAAAAAGAAATAATTGTATATGC [CACACA_negctrl_site478]”, the “gcPBM binding intensity (ln)” value is reported as 9.38.
With “AAATAGTAAATAAGGGGTACAAAAAAAAAAAAAAAA [XGTACX_site8362]” the “gcPBM binding intensity (ln)” value was 8.83.
For “AAATGCTAAAAATAGAGTACAGATAACGAAAAGTGT [XGTACX_site8830]”, the “gcPBM binding intensity (ln)” value was 9.86.
With ACAATTTTATTTAAAGTGCATGTAAAATTAAAACTT the “gcPBM binding intensity (ln)” value was 9.06.
“AATAAATATCAATACACACACACAAAAGTGAATAAA [CACACA_site3763]” was tested, and the “gcPBM binding intensity (ln)” value was 10.
For “TATACATTTATGTACACACACATATATGTATATTTA [CACACA_site2966]”, the “gcPBM binding intensity (ln)” value was 9.54.
For “AAAGGAAGAAAAAATAGTACATATATATATATATAA [XGTACX_site766]”, the “gcPBM binding intensity (ln)” value was 9.25.
In the case of “TCCATCCACATATATGTACACACATATATATATATA [CACACA_site8970]”, the “gcPBM binding intensity (ln)” value is reported as 9.63.
For “GTTAAGGGTATATATACACACATATGTAATACATGA [CACACA_site5650]”, the “gcPBM binding intensity (ln)” value was 9.52.
“ACATGTGAAGGGAACATAAATTGGGGTTTTATATTG [XGTACX_negctrl_site508]” was tested, and the “gcPBM binding intensity (ln)” value was 9.61.
With “AAATTATAAATAATTTGTACATAAAAATTGGTAAAG [XGTACX_site5197]” the “gcPBM binding intensity (ln)” value was 9.07.
“GAATATAAAAAAGAATGTACTTGAACAGTCCTAAAA [XGTACX_site745]” was tested, and the “gcPBM binding intensity (ln)” value was 9.11.
With “TTTTGTTAGTTTTTTTTCTTATATTACATTTTCACG [CACACA_negctrl_site1466]” the “gcPBM binding intensity (ln)” value was 9.48.
With “ATGTAGTCTCAAGACTGTACAAACAAGTAAATAAAA [XGTACX_site4120]” the “gcPBM binding intensity (ln)” value was 9.15.
In the case of “TGTATAAGTGCCGTTATACACACGTTATATAAATAT [CACACA_site438]”, the “gcPBM binding intensity (ln)” value is reported as 9.26.
For TATCTTATTTTAAAAGTGCATGGAAAGGGGTTTTTG, the “gcPBM binding intensity (ln)” value was 9.05.
In the case of “ATAAATTTATATACTTGTACATATATATATTACATA [XGTACX_site6697]”, the “gcPBM binding intensity (ln)” value is reported as 9.24.
In the case of “TATATATACATATACACACACACACCCATATATATA [CACACA_site2246]”, the “gcPBM binding intensity (ln)” value is reported as 10.2.
With “TTTGAAATAAAAAGGTGTACACTCGATTAATAAATA [XGTACX_site6943]” the “gcPBM binding intensity (ln)” value was 9.12.
For “TTTTAGCACTTATTATAAGATATCAAAAAGATGGGT [XGTACX_negctrl_site325]”, the “gcPBM binding intensity (ln)” value was 9.05.
In the case of “ACTATCATTTTTTTAACACACAAAAAAAATAAAATA [CACACA_site3519]”, the “gcPBM binding intensity (ln)” value is reported as 9.25.
For “AAAATTTCAATAAATACACACATATATATATATATT [CACACA_site1685]”, the “gcPBM binding intensity (ln)” value was 9.36.
For “AAATAATATATGAATGCACACAGTAAAAATTAAAGA [CACACA_site2252]”, the “gcPBM binding intensity (ln)” value was 9.7.
For “ATATTTTTATGATGTATCCAAGAAATGGAACTATAT [CACACA_negctrl_site1268]”, the “gcPBM binding intensity (ln)” value was 9.02.
For “AAGATTAATATTTTATGTACATATGTAATATATATG [XGTACX_site4367]”, the “gcPBM binding intensity (ln)” value was 9.17.
With “AAGAATACACCACGCACACACACTTGAGAAAAAATA [CACACA_site3828]” the “gcPBM binding intensity (ln)” value was 9.9.
For “TTCTTTGTGGTATAGATACACACTATATTAATATGA [CACACA_site2150]”, the “gcPBM binding intensity (ln)” value was 9.4.
For “ATATATACCTAAGACACACACATATAGATTTATATA [CACACA_site6498]”, the “gcPBM binding intensity (ln)” value was 9.84.
“ATTTTAGATATCCTGCGTACACAAATTGCTTTATTT [XGTACX_site7149]” was tested, and the “gcPBM binding intensity (ln)” value was 9.43.
In the case of “TATATAGTAATATATACACACACTTGTCTTGTAAAA [CACACA_site990]”, the “gcPBM binding intensity (ln)” value is reported as 9.56.
With “TTTTTATTTAATATTTTAAAAAAAAATCATTTTTAA [XGTACX_negctrl_site207]” the “gcPBM binding intensity (ln)” value was 8.41.
With “TTATAAAAATAATATCGTACAAATGATAAAGATTAA [XGTACX_site4893]” the “gcPBM binding intensity (ln)” value was 9.13.
With “TGAATTCGTCAAAAGCGTACATATAATATCTTCTTG [XGTACX_site8842]” the “gcPBM binding intensity (ln)” value was 9.19.
For “ACATATATATATATATATAATATTTTATATTTATTA [CACACA_negctrl_site713]”, the “gcPBM binding intensity (ln)” value was 8.96.
For “AAAATAATGTTTATATGTACATATATATATATATAT [XGTACX_site8815]”, the “gcPBM binding intensity (ln)” value was 9.34.
“CCATTTACCCTTGCCATGCACACTTTTTTATAGAAA [CACACA_site3505]” was tested, and the “gcPBM binding intensity (ln)” value was 9.55.
“ATATTTTTTTATAAATGTACAAAAATAATATTGCAT [XGTACX_site7399]” was tested, and the “gcPBM binding intensity (ln)” value was 9.02.
In the case of “TTTCCAAATTGTTGACGGACACTCACGAATAGTTAT [XGTACX_site5720]”, the “gcPBM binding intensity (ln)” value is reported as 9.09.
In the case of “ACATGAAGATATTTTTGTCCGTACAAATTCATATGA [XGTACX_site1837]”, the “gcPBM binding intensity (ln)” value is reported as 9.1.
For “CATATGTATATGACTACACACAAGGGTGTACATATA [CACACA_site1164]”, the “gcPBM binding intensity (ln)” value was 9.46.
In the case of “AGTATATCAAAATACATACACACATTTGTATATACA [CACACA_site2697]”, the “gcPBM binding intensity (ln)” value is reported as 9.5.
